Assay results: paper PMC10726135
Some of the results follow. At the low end of the ranking the order means little. Measured with an extract: partners may take part in the binding.

The sequences below were run against T1, HNF4alpha2 (COS-7 nuclear extract) (UniProt P41235) (assay: protein-binding microarray). Conditions: COS-7 nuclear extract on double-stranded Agilent 4x180k PBM; binding buffer, salt, pH and temperature not given; high values mean tight binding; double strand, one strand shown; sequences stand for … in …GCCTAGGGAGATTAGAGTATCGGTCGA.
T1 sequence: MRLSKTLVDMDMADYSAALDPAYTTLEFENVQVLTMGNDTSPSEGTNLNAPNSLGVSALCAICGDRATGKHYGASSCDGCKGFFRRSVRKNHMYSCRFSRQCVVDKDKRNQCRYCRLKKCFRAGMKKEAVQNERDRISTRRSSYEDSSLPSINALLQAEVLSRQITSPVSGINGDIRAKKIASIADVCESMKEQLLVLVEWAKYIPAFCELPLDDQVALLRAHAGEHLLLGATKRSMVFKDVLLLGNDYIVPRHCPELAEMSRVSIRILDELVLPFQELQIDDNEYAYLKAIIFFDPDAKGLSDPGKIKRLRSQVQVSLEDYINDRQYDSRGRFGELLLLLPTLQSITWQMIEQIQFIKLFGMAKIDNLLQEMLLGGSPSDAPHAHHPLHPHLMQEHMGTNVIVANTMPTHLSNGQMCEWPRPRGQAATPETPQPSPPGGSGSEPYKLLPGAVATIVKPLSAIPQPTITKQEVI

Sequence | binding signal (log2 normalized intensity)
CCACTTGGTGACTGTCATTTCCTTACAAAC | 0.0801
AGAGGATTAAAAGATAAAACATTGTACCTT | 1.9
CAATGGCCTTGCTGCGGATCAAAGGAGCTG | -0.821
CCCTTATCAGCTTATCTCAAGAATTGTCTA | 1.06
GAGCCAGTGAAGACTGAAAAGAGATAACTA | -1.13
GATCAGTGAGAAGAGAAACACATGCAATCA | -1.1
GTTAGATTAGTGTGCAGCTTTGTGTAAAAC | 0.946
ATACTATTGATAACATCTAACAGCTGATGA | 0.555
CAGTAAGAGCATCAGCAATGAACAAAGGTC | 4.27
TCAAAAATGCTTTACAAGGTGGTTGCTGTT | 1.56
GTTGAGGTCAGACATGGCTGTATGTGACAT | 1.37
CCGCATTTTCCTTTGTTGGTTTTGCCCGAG | 2.11
CACTGAAGTGAGTTAATAAATACTGGAGGA | -0.658
AAGAGAGCCATTGGTGTAACTCTGGGTCTG | 0.658
TCAGGGAGCTTTTACCTCAAATAAAGGTCA | 2.96
TGACTTTCAGAAAGTCCTTGGAAACTGTTC | 0.173
TGACAAAGACAGATTAGATCTGCGTAAGGG | -1.24
TATCTTCAATGATAAGGAATGAGGAGTCAG | 0.365
GCTGCCTTTTAGCTCCATACTTCAAGAAGT | -1.11
ATGTGACCTTCACCCTGCTGTAAATAAAAT | 2.03
TTGCCCTTTAGTTATCTCTTCTTTCTGTAT | 2.11
CTGCCTGCTTGGCCTCTCCACTTGGGTATC | 0.729
TCCAAAATATTTGCAGTGAGAAGAGGAAAA | -1.26
AAGCTGGAAGGACAGCATTCCTGTCTGCGA | -1.11

Sequence | binding signal (log2 normalized intensity)
GAGATAAGTCACCTTATCAAGTCCGAACTC | 0.669
GGAGCCAGGGCCTTTTCAAGGGAGTCCTCC | -1.08
CCGCGCGCAGGGCGGACAGCGCCGCCACCC | -1.24
AACTAGGGCAGGGACTTTGCCCTTTTTAAT | 5.86
AAGCTGTGTCAGGCATTGTACTCACTGTTA | 1.21
AATACCATCATCTCAGGGAGTGCAAACTTC | 1.13
GGTCAAAGGTCAGTTTCTTTAAGACAAGTG | 5.53
AAGTGGACTTTAGAACCCAAATAGACTTAA | 3.71
TCTCCTCTGAACCCTCTTCTCAACTAGGCC | 1.38
ACCAGCGTAATTCTGGCTCTTTGAGTGGTT | 0.76
GATGTCTGCTTCTTGGGTCAAAGTCTCTGG | 3.53
GTAATGACATGCAGTATGGGGACTTTGGAC | 5.99
TGAGCAGCTGGAGGGGGACTGGAAGGGAGA | -0.808
ATTCTCACCACTAGGAAACTGACCTTTGCT | 5.16
AGCAGATAAGAACACAAAAAGCCTGAGCAT | -1.14
ACTCCTGCCCCTGTGCAATACTTTCCCTGA | 1.07
CCCCACTGTTTTACTGGGGCCCATTGTATG | 0.384
TGCTCCAGTAAAAGCTCTACCTGACCTCCC | 2.94
ATGAGCCCCCTAAAAAGAAAACTAGATAGT | 1.21
TTTGTTACTTACAGACTTTCAACATTATGA | 1.42
CACATGGTGTCTTTTGTTGTTGTTAGCTGT | 2.39
TCTTTTTTCTGAAGACCTTCAACTGATTAG | -0.0462
AAATAGCTGGGTCTCACTCTGACCCCTCCC | 4.93
GGTTGTCAGACTGGTGTAGTGGGGAGGGCA | 1.41

Sequence | binding signal (log2 normalized intensity)
TTAGAGAACGGGTCAAGAGGGACAAAATGC | -1.17
TGCATTCCATCAGTAGTATTACCTGCATCT | -1.02
CCTCTGCCTAGGAAAACCAGAGACCTTTGT | 3.13
GTAAACTAGTGATGTGGAAATCTGGACTCA | 2.97
TGTATCTATCTCTATGTCCACAGAAAGGCA | 0.91
CTGGAATTTCAAAGGGAGCATATGTATGTC | 1.44
GGAGAACAAACCTTATCTCTCAAGGTTCCC | -1.16
CAGATTAGAAGGCAGAGAAAGATAGGAGAT | -1.09
TATACCTGTACACTTACAAGTGTACAAAGG | 2.65
TTCTTTCGGTCACCCACACAAAAATGTGCC | -1.3
CAAACAAAAAACCCTAGAGATGTACACAGT | -0.939
ACTCTGTTTGTAAAGTCTACAAGTGGATAT | 1.55
CCATTACCACATTCTCACCACTAGGAAACT | -1.15
GAAGATTCTTTGGTTGGGAATAACATTGTG | 1.79
ACGTAAACAAGTAAGGAAGACAAGACAAGG | -1.21
CCCACCTCCACTCTCATAAAAGAGGCCAAT | 1.66
TAGCACTGACCAGCTCCAAAGTCCGCCACT | 2.36
GCTAGAGCGCGCTGGAATCTTGATAATGCC | -1.27
GCTTCCAATCCTGGAGAAGGAGCACCAATG | -1.02
TAAAATAACGACCTTTGGGCTAAAAAGGAA | 2.51
CCCTCTGGTGCTGATGTGTTCGCCCCTAGG | 1.23
GATAGGGAGGGGTAAGGGTGGGGGTGGGGA | -1.14
CTGAATGGAATGAAGATACTGGATAACCTT | 0.695
GGTCAGCAATCTCAAAGACTGGAGGTAGAT | -1.07

Sequence | binding signal (log2 normalized intensity)
TCTTGACCAGGCAAGCTTGACCTTTGATCC | 10.2
ACAGTGCAGCACAGCAGCTGACAGATGGTG | -1.19
CACAGCTCTAGAGGGCTGCTTATCTAGGAT | -0.814
TTTTCTTTTTAATCCTGGATTCCTCCAGCC | -0.837
AATGGGCCTAGGTATTGAGGGAGCAAAGGG | -0.79
TATCACCCTCCCTATCAGCTACTCATGCTT | 1.01
TGCAGAGTGTCCCACTTCAGGCAGGAATGC | -1.08
GTCCCCCACCTGGAATGTGCTCCCGACTGC | 3.41
GCCTAGCACAGTGCCTGGCATGTGATAGGC | -1.12
TCAGTTTCTGAGAGTGGCAAGCAGGAGCTG | -1.2
TCCTCACAGTGCAGCACAGCAGCTGACAGA | -1.13
TAGTGTGTCAGGGAAGGCTAGCATTCCTGC | -1.02
CAGTCAGACACGCCTTGCACAAATTTCAGA | -1.06
ACTTTATATTCCTTTGTATCTGTACCTTAA | 2.1
GGCCTTTACCCCTTGAGTTTGAACTTTGAC | 6.48
AAGGTCGTGTGCTTATCACATCTATCTGCC | -0.0176
TCATTGAGCCCTCCCCTTGTCTGATAAGAT | 2.66
AAAGGTCACTTCTGTTCATTGATAAAGGGT | 2.42
GGGCGCCTCCCGGAGGACCCGACCGGAGAG | -1.11
GGACTAGTAGAGTGGGGAGGTAGGGCAAGA | -1.28
GAAACATTTTACTCACCCCTTGCTGAGTGG | 1.82
